In PMC4336329 (PLoS ONE, 2015):
Screen size: about 310,000 compounds; about 2,200 (0.71%) showed an effect of 50% or more. Effects have a minus sign here. Some of the results follow. Where a SMILES comes first, the peptide text is derived from it. [ ]: non-standard residue; d: D form. The star is where a group is joined. ξ: configuration not given here. Cbz = O=C(OCc1ccccc1)*; ξP = O=C(O)C1CCCN1

Molecular target: human ether-à-go-go-related gene (hERG) potassium channel (human, UniProt Q12809)
Assay: primary screen, population patch clamp on CHO cells stably expressing hERG

Sequence of human ether-à-go-go-related gene (hERG) potassium channel (Q12809 whole entry, looked up): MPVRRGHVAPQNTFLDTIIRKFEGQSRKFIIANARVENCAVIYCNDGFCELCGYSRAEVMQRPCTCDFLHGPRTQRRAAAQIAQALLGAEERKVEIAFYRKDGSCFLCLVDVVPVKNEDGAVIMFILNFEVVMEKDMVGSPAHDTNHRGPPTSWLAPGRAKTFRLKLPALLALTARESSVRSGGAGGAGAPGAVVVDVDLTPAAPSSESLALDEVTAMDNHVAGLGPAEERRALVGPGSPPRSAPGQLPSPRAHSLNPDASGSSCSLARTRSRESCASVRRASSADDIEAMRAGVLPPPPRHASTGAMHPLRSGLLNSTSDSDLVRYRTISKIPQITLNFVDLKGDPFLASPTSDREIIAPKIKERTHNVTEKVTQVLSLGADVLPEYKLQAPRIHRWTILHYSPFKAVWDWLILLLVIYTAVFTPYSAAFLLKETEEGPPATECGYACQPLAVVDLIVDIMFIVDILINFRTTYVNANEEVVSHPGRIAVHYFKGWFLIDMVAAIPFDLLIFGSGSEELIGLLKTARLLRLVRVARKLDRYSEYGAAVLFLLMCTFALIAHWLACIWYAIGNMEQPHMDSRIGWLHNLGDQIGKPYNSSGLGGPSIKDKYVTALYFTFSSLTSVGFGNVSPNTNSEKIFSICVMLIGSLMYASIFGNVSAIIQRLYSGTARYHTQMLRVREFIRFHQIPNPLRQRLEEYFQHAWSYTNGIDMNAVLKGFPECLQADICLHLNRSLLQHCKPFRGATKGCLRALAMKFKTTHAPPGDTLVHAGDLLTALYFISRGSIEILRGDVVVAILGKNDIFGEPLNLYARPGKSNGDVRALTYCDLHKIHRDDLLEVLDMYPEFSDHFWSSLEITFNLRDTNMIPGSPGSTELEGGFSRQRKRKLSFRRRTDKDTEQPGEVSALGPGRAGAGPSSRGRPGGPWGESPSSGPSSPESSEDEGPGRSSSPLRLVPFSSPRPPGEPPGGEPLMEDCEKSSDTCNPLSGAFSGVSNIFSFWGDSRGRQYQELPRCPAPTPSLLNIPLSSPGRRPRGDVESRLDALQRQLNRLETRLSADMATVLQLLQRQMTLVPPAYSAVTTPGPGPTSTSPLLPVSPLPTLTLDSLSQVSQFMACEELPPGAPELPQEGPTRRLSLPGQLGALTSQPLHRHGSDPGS

Row | SMILES | hERG current change (%, negative = inhibition) at 1uM [%]
1 | Cc1ccc(-n2c(C)c(C)c3c(N)ncnc32)cc1 | 8.28
2 | S=c1sc2ccccc2n1CCc1ccncc1 | 16.5
3 | Oc1ccc(C=NC2CCCCC2)cc1 | 15
4 | Cc1cc(C)c(NC(=O)c2sc3nc(C)[nH]c(=O)c3c2C)c(C)c1 | 12.4
5 | O=C(/C=C/c1ccc(OCCCF)cc1)Nc1ccnc(-c2ccncc2)n1 | 17.1
6 | CCn1c(C)cs/c1=N\S(=O)(=O)c1ccccc1 | 10.3
7 | CCCn1c(=S)[nH]c2ccc(C(F)(F)F)cc21 | -6.25
8 | CCCCn1c(C(C)NC(=O)c2cccs2)nc2ccccc21 (stereo not drawn) | 17.1
9 | Cc1cc(NC(=O)C(C)Oc2ccc(Cl)cc2Cl)no1 (stereo not drawn) | 4.53
10 | COc1cc(C(=O)NCCOc2cccc(C)c2)c(Br)c(OC)c1OC | 11.4
11 | Cc1cccc(OCC(=O)Nc2ccccc2F)c1 | 13.9
12 | CCOC(=O)C1CCCN(S(=O)(=O)c2ccc(OC)cc2)C1 (stereo not drawn) | -1.51
13 | Cn1c(Cl)nc2c1c(=O)n(Cc1cccc(Br)c1)c(=O)n2C | 5.48
14 | Cc1ccn2c(=O)nc(SCC(=O)N3N=C(c4cccs4)CC3c3ccc(F)cc3)nc2c1 (stereo not drawn) | 2.6
15 | COc1cc2c(cc1OC)C(=O)N1[C@H]3c4cc(Cl)ccc4OC[C@@H]3[C@H](c3ccccc3)[C@]1(C)C(=O)N2 | 13.1
16 | CCOc1cccc(N(C(=O)CCC(=O)Nc2cc(C)on2)C(C(=O)NC(C)(C)C)c2ccc(OC)cc2)c1 (stereo not drawn) | 9.42
17 | COC(=O)C1=C(c2ccc3ccccc3c2)C[C@@H]2CC[C@H]1N2C(=O)NC(C)C | 10.5
18 | CC(C)CCNC(=O)C1CCCCN1S(=O)(=O)c1ccc(F)cc1 (stereo not drawn) | 12
19 | O=C(CCN1C(=O)/C(=C/c2cccs2)SC1=S)N1CCCCC1 | 11.3

Row | SMILES | hERG current change (%, negative = inhibition) at 1uM [%]
20 | CNC(=O)C(=O)Nc1nc(C23CC4CC(CC(C4)C2)C3)cs1 | 10.1
21 | CCOC(=O)c1c(NC(=O)c2ccccc2C)sc2c1CC(C)(C)OC2 | 8.48
22 | CCOc1cc(CNCCO)cc(Br)c1OCc1cccs1.Cl | -4.1
23 | O=C(Cc1ccc(Br)cc1)N1CCN(c2ccccc2O)CC1 | 9.37
24 | CCOc1ccc(CCNC(=O)CN2CCN(Cc3ccccc3F)C2=O)cc1OCC | -0.385
25 | Cn1c(=O)[nH]c(NC2CCCCC2)c([N+](=O)[O-])c1=O | 9.8
26 | COC(=O)C1N[C@@H]([C@@H](NC(=O)COc2ccccc2)C(=O)NCc2ccccc2)SC1(C)C (stereo partly drawn) | 10
27 | COc1ccc(NC(=O)CCS(=O)(=O)c2ccc3nc(C)sc3c2)cc1OC | 8.23
28 | CC(c1ccccc1)N1C(=O)c2ccc(C(=O)Nc3ccc(Br)cc3C(=O)O)cc2C1=O (stereo not drawn) | 11.4
29 | CCOC(=O)c1c(NC(=O)OC)sc2c1CCC2 | -3.17
30 | O=C(CN1CCN(Cc2ccccc2Cl)CC1)N/N=C/c1ccco1 | 1.4
31 | CC(C)N(C(=O)COC(=O)[C@@H]1CC(O)CN1S(=O)(=O)c1ccccc1[N+](=O)[O-])C(C)C (stereo partly drawn) | 20.5
32 | CCn1c(SCC(=O)N2CCC(C)CC2)nnc1-c1ccc(S(=O)(=O)N2CCN(C)CC2)cc1 | 1.98
33 | CCCC(=O)c1cc2cc(Cl)ccc2oc1=O | 8.92
34 | COc1ccc(NCc2n[nH]nc2-c2ccccc2)cc1Cl | 10.6
35 | O=C(c1ccccc1)c1ccc(OCC(O)CN2CCCC2)cc1 (stereo not drawn) | -8.71
36 | COc1ccc(NC(=O)CN(C)C(=O)C(C)Oc2ccc(Br)cc2)cc1 (stereo not drawn) | 7.61
37 | CC[C@@H](C)[C@H](NC(=O)C1CCN(C(=O)[C@@H](NS(=O)(=O)c2ccc(C)cc2)C(C)C)CC1)C(=O)O | 20
38 | CCCn1c(SCC(=O)NCC(=O)Nc2ccc(F)c(F)c2F)nc2ccccc2c1=O | 8.5

Row | SMILES | hERG current change (%, negative = inhibition) at 1uM [%]
39 | CCn1cc(C(=O)NC2CCCCC2C)c(=O)c2ccc(C)nc21 (stereo not drawn) | 14.3
40 | CCN(CC)CCC#CC1(O)c2ccccc2-c2ccccc21 | 14.9
41 | COc1ccc(OC)c(/C=C2\NC(=O)NC2=O)c1 | 6.07
42 | CC(C)CCC1(C)NC(=O)N(CC(=O)c2ccc[nH]2)C1=O (stereo not drawn) | -3.08
43 | O=C(COC(=O)Cn1cnc2ccccc21)Nc1ccc2c(c1)C(=O)c1ccccc1C2=O | 2.39
44 | CC12CCCCC1c1ccccc1C(=NCC(=O)O)N2 (stereo not drawn) | -3.09
45 | COCCNC(=O)CSc1nc2ccccc2c(=O)n1CCCC(=O)NCc1ccccc1 | -5.34
46 | CN1CCN(CCC(=O)N/N=C/c2ccccn2)CC1 | 20.1
47 | CCn1c(SCc2nc3ccccc3s2)nnc1-c1cccs1 | 0.0975
48 | O=C(NC1CCCC1)NS(=O)(=O)c1ccccc1Cl | 12.4
49 | Brc1ccccc1 | 3.79
50 | CCOc1ccc(C(=O)NC(=S)Nc2ccc(NC(=O)C(C)C)cc2)cc1[N+](=O)[O-] | 4.85
51 | COc1ccc(NC(=O)CSCC(=O)Nc2cc(Cl)ccc2N2CCCC2)cc1 | -2.99
52 | Cc1cc(C(=O)NCc2ccc3c(c2)OCO3)c(C)o1 | 11.1
53 | CC(=O)N1CCC(N2CCN(Cc3ccc(C)cc3)C(CCO)C2)CC1 (stereo not drawn) | 13.2
54 | COC(=O)C1=C(C)N(c2ccc(C(=O)OC)cc2)C(=O)C1 | 19.4
55 | O=C(O)CNC(=O)C1CCCN1C(=O)CNC(=O)OCc1ccccc1 (stereo not drawn) (Cbz-Gly-[ξP]-Gly-OH) | 5.42
56 | O=C(CCS(=O)(=O)c1cccc2nonc12)N1CCN(c2ccc(F)cc2)CC1 | -26.3
57 | Cc1ccc(S(=O)(=O)C(C#N)=C2N(C)c3ccccc3N2C)cc1 | 84.2
